From PubChem BioAssay AID1508642 (National Center for Advancing Translational Sciences (NCATS), 2021)
Screen size: about 43,000 compounds; about 200 (0.47%) were called active. Inconclusive results (about 12%) are left out. Calls follow the shape of the dose curve; as a rule, active = well fitted cell-killing curve with a large enough effect; inconclusive = small, poorly fitted or top-dose-only effect, or effect the other way; inactive = flat fitted curve, though single readings scatter. This is one part of the list.

experiment: Cell viability qHTS assay in S16 Pmp22-F2sN cells; conditions: S16 Pmp22-F2sN Schwann cells (luciferase reporters placed in the Pmp22 gene) viability, CellTiter-Glo, 24 h; series mostly up to 57.5 µM; activity change, negative = cytotoxicity: at the top concentration; also: nearly all actives have a fitted effect of over 65% in size
Method in brief: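 Rat S16 Schwann reporter line, 24 h treatment with library compounds delivered at 23 nL per well. Cell viability by CellTiter-Glo luminescence.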
% is scaled to controls: 0 for no effect and ±100 for the full control effect.

| SMILES | activity change, negative = cytotoxicity |
| --- | --- |
| O=C(Nc1ccc(Cl)cc1)N1CCC(CN2CCCCCC2)CC1 | inactive: -1.9% |
| Cc1ccc(C(=O)c2oc3ccccc3c2NC(=O)c2cc(=O)c3cc(C)ccc3o2)cc1 | inactive: 3.84% |
| COC(=O)c1ccc(-n2nnc(-c3nc(-c4ccccc4Cl)no3)c2C)cc1 | inactive: -2.02% |
| CCNC(=O)C1CCCN(c2ncnc3onc(C)c23)C1 (stereo not given) | inactive: -1.23% |
| COc1ccc(NC(=O)Cn2cc(C(=O)c3ccncc3)c(=O)c3cc(C)ccc32)cc1Cl | inactive: -3.66% |
| Cc1cccc(Cn2c(SCc3ccc(C(=O)NCc4ccccc4)cc3)nc3cccnc32)c1 | inactive: -28.2% |
| Cc1nc(N2CCOCC2)c2c(C(=O)N(C)Cc3ccccc3)c(C)oc2n1 | inactive: 0.998% |
| CCOc1cccc2sc(N3CCN(C(=O)C(C)(C)C)CC3)nc12 | inactive: 7% |
| CCOC(=O)C1CCN(c2cc(C)nc3c(-c4ccccc4OC)c(C)nn23)CC1 | inactive: 9.61% |
| O=C(Cn1nc(-c2ccccc2)c2cnc3ccc(F)cc3c21)NC1CCCC1 | inactive: 4.11% |
| O=C(Nc1nnc(S(=O)(=O)N2CCCCCC2)s1)c1ccccc1F | inactive: 3.4% |
| Cc1ccc(-c2nnc(SCC(=O)N3CCCc4ccccc43)o2)cc1 | inactive: 2.73% |
| Cc1cc(NC(=O)CSc2nc3c([nH]c4ccccc43)c(=O)n2-c2ccccc2F)no1 | inactive: 16.7% |
| CC(C)(CC(=O)OCC(=O)Nc1ccccc1F)CC1=NS(=O)(=O)c2ccccc2N1 | inactive: 18% |
| O=C(COc1ccc([N+](=O)[O-])cc1)N1CCC(c2nc3ccccc3s2)CC1 | inactive: -14.5% |
| COc1cc(NC(=O)c2ccc3c(Cl)c4c(nc3c2)CCC4)cc(OC)c1OC | inactive: 28.2% |
| CC(=O)c1cccc(-n2c(=O)c3c4c(sc3n(CC(=O)Nc3ccccc3F)c2=O)CN(C(C)=O)CC4)c1 | inactive: 0.332% |
| CCOc1ccc(N(C(C)C(=O)NCCSc2ccc(Cl)cc2)S(C)(=O)=O)cc1 (stereo not given) | inactive: -4.05% |
| COc1ccc(N2Cc3cccc(C(=O)Nc4ccc(Cl)cc4)c3C2=O)cc1 | inactive: 3.73% |
| CCOc1ccc(-c2nonc2NC(=O)c2oc3cc(C)ccc3c2C)cc1OCC | inactive: -9.74% |
| O=C(COc1ccc(F)cc1)Nc1nnc(SCc2cc(=O)n3ccccc3n2)s1 | inactive: -14.7% |
| COc1ccc(C)cc1NC(=O)C(Cc1ccccc1)NS(=O)(=O)c1ccc(Br)s1 (stereo not given) | inactive: 1.47% |
| Cc1ccc(CN(Cc2ccco2)C(=O)COc2cccc(C)c2C)o1 | inactive: -14.9% |
| CCOC(=O)C1CCCN(C(=O)c2ccc3c(c2)sc2nc(-c4ccc(C)cc4C)cn23)C1 (stereo not given) | inactive: -7.64% |

| SMILES | activity change, negative = cytotoxicity |
| --- | --- |
| O=C(Nc1nc2n(n1)C(c1ccccc1)C=C(c1ccc(Cl)cc1)N2)c1ccco1 (stereo not given) | inactive: -15.3% |
| COc1cccc(Cn2c(SCc3ccc(C(=O)N4CCCCC4)cc3)nc3ccncc32)c1 | inactive: -20.2% |
| Cc1cc(Cl)ccc1NC(=O)CN1C(=O)COc2ccc(S(=O)(=O)Nc3ccccc3)cc21 | inactive: 2.14% |
| Cc1ccc(Cl)cc1NC(=O)CCc1c(C)nc2c3cccnc3nn2c1C | inactive: -9.71% |
| O=C(c1cccc(Cl)c1)N1c2ncnn2C2(CCCCC2)[C@@H]2CCCC[C@@H]21 | inactive: -4.31% |
| Cc1ccc2c(=O)cc(C(=O)Nc3sc4c(c3C(=O)NCC3CCCO3)CCCC4)oc2c1C (stereo not given) | inactive: 3.8% |
| CC(C)(C)OC(=O)N1CCC(c2c(C(=O)NCCN3CCOCC3)cnn2-c2ccc(F)cc2)CC1 | inactive: -0.527% |
| COc1ccc(-c2ccc3c(N)c(C(=O)NCc4ccc(C)cc4)sc3n2)cc1 | inactive: 6.48% |
| Cc1ccc2c(c1)N(C(=O)N1CCC(C(=O)NCCc3ccccc3)CC1)CC(C)O2 (stereo not given) | inactive: -2.36% |
| Cc1ccc(NC(=O)CSc2nc3ccc(NC(=O)CCc4ccccc4)cc3s2)cc1 | inactive: 25.9% |
| CCN1CCN(Cc2c(O)ccc3c(=O)c(Oc4ccccc4C(C)C)c(C(F)(F)F)oc23)CC1 | inactive: -2.41% |
| CCCN1CCN(CCCNC(=O)Cn2nc(C)n3c(cc4c(OC)cccc43)c2=O)CC1 | inactive: 8.27% |
| COc1ccc(C(=O)N(Cc2ccc(N(C)C)cc2)CC2CCCO2)cc1 (stereo not given) | inactive: 18.1% |
| COc1ccc(NC(=O)CSc2cn(CCNC(=O)c3c(F)cccc3F)c3ccccc23)cc1 | inactive: 7.49% |
| CC(=O)Nc1ccc2nc(NC(=O)CS(=O)(=O)c3ccc(C)cc3)sc2c1 | inactive: -1.3% |
| CCC(C)n1c(=N)c(C(=O)NC2CCCCC2)cc2c(=O)n3ccccc3nc21 (stereo not given) | inactive: -20% |
| COc1ccc(C2=Nc3ccc(OC(F)(F)F)cc3NC(c3cccnc3)=N2)cc1 | inactive: -17.7% |
| Cc1ccc(C)c(N2CCN(S(=O)(=O)c3cn(C)c(C)n3)CC2)c1 | inactive: 7.19% |
| Cc1ccc(CNC(=O)c2cc3ccc4cccnc4c3[nH]2)cc1 | inactive: 0.604% |
| Cc1ccc(NC(=O)Cn2cnc3c2c(=O)n(C)c(=O)n3C)cc1C | inactive: -19.5% |
| CCN(C(=O)Cn1c(=O)n(Cc2ccccc2)c(=O)c2c1c1cc(OC)ccc1n2C)c1ccccc1 | inactive: 25.3% |
| COc1ccc(-c2noc(-c3ccc(NC4CCCC4)c([N+](=O)[O-])c3)n2)cc1OC | inactive: -7.9% |
| Cc1ccccc1CNC(=O)c1ccc2nc(C(C)C)oc2c1 | inactive: 1.42% |
| COc1cc(Cl)c(C)cc1NC(c1ccccc1)c1nnc(-c2ccccc2Cl)o1 (stereo not given) | inactive: -12.3% |

| SMILES | activity change, negative = cytotoxicity |
| --- | --- |
| Cc1ccc(C)c(CSc2nnc3[nH]c(=O)cc(-c4ccccc4)n23)c1 | inactive: 13.4% |
| COc1ccc(CNC(=O)C2CCN(S(=O)(=O)c3ccc4c(c3)CCCN4C(C)=O)CC2)cc1 | inactive: 0.244% |
| COCc1cc(C)nc2sc3c(=O)n(-c4ccccc4C(F)(F)F)nnc3c12 | inactive: -6.48% |
| CCc1ccccc1NC(=O)c1sc(-n2nc(C)c(Cc3ccccc3)c2C)nc1C | inactive: -14.8% |
| Cc1cccc(NC(=O)C2CCN(S(=O)(=O)c3ccc4c(c3)CCCN4C(=O)C3CCC3)CC2)c1 | inactive: -24.5% |
| COCCCn1c(=O)c2sccc2n2c(CCCC(=O)NC3CCC(C)CC3)nnc12 (stereo not given) | inactive: 16.1% |
| Cc1cccc(C)c1-n1ncc(C(=O)N2CCN(c3ncccn3)CC2)c1C1CCN(C(=O)OC(C)(C)C)CC1 | inactive: 6.04% |
| CCCn1cc(S(=O)(=O)c2cc(C)ccc2C)c(=O)c2cc(F)c(N3CCN(CC)CC3)cc21 | inactive: -12.3% |
| CCOC(=O)c1c(S(=O)(=O)NCC(=O)NCc2ccccc2Cl)c(C)n(C)c1C | inactive: -11.4% |
| CCOCCc1nnc(NC(=O)C(=O)c2cc(C)n(-c3ccc(Cl)cc3)c2C)s1 | inactive: -1.04% |
| Cc1cc2n(n1)CCCN2C(=O)Nc1ccc(F)c(Cl)c1 | inactive: 2.87% |
| Cc1cc(OCC(=O)N2CCC(c3nc4ccccc4s3)CC2)ccc1Cl | inactive: -2.23% |
| O=C(CSc1ncc(-c2ccccc2)[nH]1)Nc1cccc(Br)c1 | inactive: -24.1% |
| Cc1ccc(-c2nnn3c2nc(NC2CCC(C)CC2)c2ccccc23)cc1 (stereo not given) | inactive: 7.43% |
| COc1cccc(-n2c(C)nc3cc(C(=O)O)ccc32)c1 | inactive: -0.948% |
| COc1cc2nc(NC(=O)c3ccc(S(=O)(=O)N4CCc5ccccc54)cc3)sc2cc1OC | inactive: 0.117% |
| CC1CCCCN1C(=O)c1ccc2c(c1)N(Cc1ccc(F)cc1)C(=O)c1ccccc1S2(=O)=O (stereo not given) | inactive: 18.3% |
| COC(=O)CN1C(C(=O)c2ccccc2)=C(OC(=O)c2ccc(F)cc2)c2ccccc2S1(=O)=O | inactive: 8.76% |
| CCC1CCCCN1C(=O)CSc1nnc(-c2ccc(OC)c(OC)c2)o1 (stereo not given) | inactive: 5.3% |
| CCOC(=O)c1ccc(NC(=O)N2CC3CCCN3c3ccccc32)cc1 (stereo not given) | inactive: -21.2% |
| Cc1ccc2nc(-c3cccs3)c(Nc3ccc4c(c3)OCCO4)n2c1 | inactive: 1.58% |
| CCOC(=O)N1CCN(Cc2nc3cc(NC(=O)c4ccccc4Cl)ccc3n2C(C)C)CC1 | inactive: -19.7% |
| CC(=O)N1CCc2c(sc3c2c(=O)n(-c2ccccc2Cl)c(=O)n3Cc2cccc(C)c2)C1 | inactive: 12.6% |
| CC(=O)c1cccc(NC(=O)CCc2c(C)nc3nc(CN)nn3c2C)c1 | inactive: -14.7% |

| SMILES | activity change, negative = cytotoxicity |
| --- | --- |
| COc1ccccc1NC(=O)CSc1cn(CC(=O)N2CCCC2)c2ccccc12 | inactive: 10.9% |
| CCOc1ccc(NC(=O)c2ccc(F)c(S(=O)(=O)N(Cc3ccc(C(=O)OC)cc3)Cc3ccc(OC)c(OC)c3)c2)cc1 | inactive: 6.54% |
| CCOc1ccc(N2CC(C)Cn3c2nc2c3c(=O)n(Cc3c(F)cccc3Cl)c(=O)n2C)cc1 (stereo not given) | inactive: 2.45% |
| O=C(Cn1cc(C(=O)c2ccco2)c2ccccc21)Nc1ccccc1 | inactive: 5.13% |
| CN(C)c1ncc(C(=O)NCc2ccc(Cl)cc2)cn1 | inactive: -2.76% |
| COc1ccccc1NC(=O)C1=C(C)Nc2nc3ccccc3n2C1c1ccccc1Cl (stereo not given) | inactive: 21.7% |
| COc1ccc(Cl)cc1Nc1ccc2cc(S(=O)(=O)N3CCCCC3)ccc2n1 | inactive: -25.9% |
| CCC(=O)N1CCc2cc(S(=O)(=O)NCc3ccc(C)cc3)ccc21 | inactive: 0.482% |
| COc1ccc(-c2nc3sc(CCNC(=O)Cc4ccccc4)c(C)n3n2)cc1 | inactive: 4.38% |
| COc1ccc(C)cc1NC(=O)c1nnn(Cc2cccc(Br)c2)c1N | inactive: -6.63% |
| COc1ccc(C2=NS(=O)(=O)N(C)C(C(=O)NC(C)c3ccccc3)=C2)cc1 (stereo not given) | inactive: 0.462% |
| COc1ccc(CNC(=O)c2cnc(N3CCCC3)nc2C)c(OC)c1 | inactive: -1.14% |
| CCOC(=O)c1cnc2ccc(OC)cc2c1Nc1ccc(OCc2ccccc2Cl)cc1 | inactive: -12.6% |
| Cc1ccc(NC(=O)CCC(=O)N2Cc3ccccc3Oc3ncccc32)cc1Cl | inactive: 3.75% |
| COc1ccccc1CNC(=O)C(NS(=O)(=O)c1ccc2c(c1)CCN2C(C)=O)C(C)C (stereo not given) | inactive: -2.23% |
| CCc1ccc(C(=O)c2cn(CC(=O)Nc3cc(OC)ccc3OC)c3ccc(Cl)cc3c2=O)cc1 | inactive: 12.3% |
| Cc1ccc2oc(C(=O)Nc3ccc(S(=O)(=O)N4CCCCC4C)cc3)cc(=O)c2c1 (stereo not given) | inactive: 2.45% |
| CCN(CC)S(=O)(=O)c1ccc2c(c1)N(CC(=O)NCCCN1CCN(c3ccc(OC)cc3)CC1)C(=O)CO2 | inactive: -0.577% |
| CCCS(=O)(=O)N1CCC(n2c(C)nc3cccnc32)CC1 | inactive: 6.8% |
| CCN(C(=O)CSc1nc2ccccc2n1CC(=O)N(C)C1CCCCC1)c1ccccc1 | inactive: 16.1% |
| CCOC(=O)c1cc(-c2ccccc2)n(CCC(=O)NCCc2ccccc2)c1C | inactive: -24% |
| CCOC(=O)c1cnc2c(ccc3ccccc32)c1Nc1cccc(Cl)c1 | inactive: 3.76% |
| COc1ccc(CCNC(=O)c2cnc3sc(N4CCOCC4)nn3c2=O)cc1 | inactive: -2.07% |
